# The supplement of paper PMC4967469
# Key:
# Assay in all cases: Viability of human cancer cell lines after 72 h of drug (GDSC screen)
# Tamoxifen = compound: CC/C(=C(\c1ccccc1)c1ccc(OCCN(C)C)cc1)c1ccccc1 [Tamoxifen]; conditions: top dose 5 µM
# Procedure: (§1)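 Human cancer cell lines in 384-well plates, medium with 10% serum, drug for 72 h over a 256-fold dose range (nine 2-fold or five 4-fold steps up to the top dose). Adherent lines were fixed and stained with the nucleic acid dye Syto60, suspension lines read with resazurin; signal relative to control wells, capped at 0 and 100%. One two-parameter sigmoid per drug and line, fitted in a mixed model over all curves with the slope shared within a line.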
# VNLG/124 = compound: CCCC(=O)OCc1ccc(OC(=O)/C=C(C)/C=C/C=C(C)/C=C/C2=C(C)CCCC2(C)C)cc1 [VNLG/124]; conditions: top dose 5.12 µM; top dose inferred
# Procedure: as §1
# Elesclomol = compound: CN(NC(=O)CC(=O)NN(C)C(=S)c1ccccc1)C(=S)c1ccccc1 [Elesclomol]; conditions: top dose 0.2 µM; top dose inferred
# Procedure: as §1
# HG-5-88-01 = compound: COc1cc(N2CCC(C(N)=O)CC2)ccc1Nc1nc(N)c(Cl)c(Nc2ccccc2S(=O)(=O)C(C)C)n1 [HG-5-88-01]; conditions: top dose 10 µM; top dose inferred
# Procedure: as §1
# Bleomycin = compound: Cc1c(N)nc([C@H](CC(N)=O)NC[C@H](N)C(N)=O)nc1C(=O)N[C@H](C(=O)N[C@H](C)[C@@H](O)[C@H](C)C(=O)N[C@H](C(=O)NCCc1nc(-c2nc(C(=O)NCCC[S+](C)C)cs2)cs1)[C@@H](C)O)[C@@H](OC1OC(CO)C(O)C(O)C1OC1OC(CO)C(O)C(OC(N)=O)C1O)c1cnc[nH]1 [Bleomycin]
# Procedure: as §1
# Masitinib = compound: Cc1ccc(NC(=O)c2ccc(CN3CCN(C)CC3)cc2)cc1Nc1nc(-c2cccnc2)cs1 [Masitinib]; conditions: top dose 20 µM
# Procedure: as §1
# LAQ824 = compound: O=C(/C=C/c1ccc(CN(CCO)CCc2c[nH]c3ccccc23)cc1)NO [LAQ824]; conditions: top dose 1.024 µM; top dose inferred
# Procedure: as §1
# OSI-930 = compound: O=C(Nc1ccc(OC(F)(F)F)cc1)c1sccc1NCc1ccnc2ccccc12 [OSI-930]; conditions: top dose 10.24 µM
# Procedure: as §1
# BX-912 = compound: O=C(Nc1cccc(Nc2ncc(Br)c(NCCc3cnc[nH]3)n2)c1)N1CCCC1 [BX-912]; conditions: top dose 10.24 µM; top dose inferred
# Procedure: as §1
# NSC-87877 = compound: O=S(=O)(O)c1ccc2cc(N=Nc3cc(S(=O)(=O)O)c4cccnc4c3O)ccc2c1 [NSC-87877]; conditions: top dose 16 µM; top dose inferred
# Procedure: as §1
# [1] = top dose 50 µM, screen: GDSC drug entry 1378, top dose inferred
# [2] = top dose 64 µM, screen: GDSC drug entry 190
Cell Line,AUC (Tamoxifen),IC50 (Tamoxifen) [µM],AUC (VNLG/124),IC50 (VNLG/124) [µM],AUC (Elesclomol),IC50 (Elesclomol) [nM],AUC (HG-5-88-01),IC50 (HG-5-88-01) [µM],AUC (Bleomycin; [1]),IC50 (Bleomycin; [1]) [µM],AUC (Bleomycin; [2]),IC50 (Bleomycin; [2]) [µM],AUC (Masitinib),IC50 (Masitinib) [µM],AUC (LAQ824),IC50 (LAQ824) [nM],AUC (OSI-930),IC50 (OSI-930) [µM],AUC (BX-912),IC50 (BX-912) [µM],AUC (NSC-87877),IC50 (NSC-87877) [µM]
"LS-1034 (large intestine, adherent)",0.985,> 5,0.981,> 5.12,0.986,> 200,0.884,> 10,0.922,> 50,0.804,36.2,0.864,> 20,0.371,27.1,0.97,> 10.2,0.944,> 10.2,0.985,> 16
"FTC-133 (thyroid, adherent)",0.954,> 5,0.982,> 5.12,0.623,28.3,0.947,> 10,0.821,32.8,0.303,1.05,0.941,> 20,0.545,85.9,0.977,> 10.2,0.986,> 10.2,0.984,> 16
"NCI-H2110 (non-small cell lung carcinoma, adherent)",0.98,> 5,0.986,> 5.12,0.773,79.9,0.861,8.78,0.698,11.5,0.361,1.63,0.986,> 20,0.585,110,0.986,> 10.2,0.985,> 10.2,0.986,> 16
"LS-513 (large intestine, adherent)",0.986,> 5,0.987,> 5.12,0.811,112,0.813,5.69,0.606,6.17,0.742,20.3,0.908,> 20,0.704,246,0.948,> 10.2,0.909,> 10.2,0.984,> 16
"OVCAR-4 (ovary, adherent)",0.965,> 5,0.974,> 5.12,0.411,6.32,0.83,> 10,0.764,27.4,0.509,4.29,0.948,> 20,0.447,42.7,0.966,> 10.2,0.976,> 10.2,0.977,> 16
"KP-N-YN (neuroblastoma, adherent)",0.985,> 5,0.987,> 5.12,0.719,55.8,0.913,> 10,0.785,23.7,0.778,28.5,0.951,> 20,0.64,162,0.978,> 10.2,0.977,> 10.2,0.985,> 16
"GR-ST (lymphoblastic leukaemia, suspension)",0.909,> 5,0.968,> 5.12,0.869,> 200,0.77,4.62,0.887,> 50,0.751,25.1,0.646,3.46,0.493,61.1,0.913,> 10.2,0.82,7.55,0.978,> 16
"HCC2157 (breast, suspension)",0.985,> 5,0.985,> 5.12,0.587,22,0.945,> 10,0.902,> 50,0.876,> 64,0.987,> 20,0.327,20.5,0.943,> 10.2,0.981,> 10.2,0.945,> 16
"ABC-1 (lung adenocarcinoma, adherent)",0.943,> 5,0.958,> 5.12,0.157,0.833,0.829,8.02,0.731,16.5,0.747,24.1,0.839,17.8,0.407,33.7,0.912,> 10.2,0.762,4.37,0.982,> 16
"ETK-1 (biliary tract, adherent)",0.955,> 5,0.978,> 5.12,0.65,34.5,0.901,> 10,0.521,3.6,0.165,0.318,0.875,> 20,0.313,17.8,0.981,> 10.2,0.953,> 10.2,0.983,> 16
"OE21 (oesophagus, adherent)",0.853,> 5,0.974,> 5.12,0.405,6.21,0.848,> 10,0.443,2.05,0.569,6.6,0.973,> 20,0.466,49.8,0.971,> 10.2,0.973,> 10.2,0.978,> 16
"A101D (melanoma, adherent)",0.886,> 5,0.98,> 5.12,0.57,20.3,0.915,> 10,0.506,3.26,0.254,0.658,0.97,> 20,0.443,43.3,0.98,> 10.2,0.892,> 10.2,0.975,> 16
"PCI-6A (head and neck, adherent)",0.986,> 5,0.918,> 5.12,0.45,9.13,0.982,> 10,0.462,2.47,0.634,9.31,0.951,> 20,0.246,12.1,0.987,> 10.2,0.873,9.52,0.947,> 16
"TOV-112D (ovary, adherent)",0.928,> 5,0.978,> 5.12,0.576,20.2,0.958,> 10,0.437,2.1,0.18,0.432,0.877,> 20,0.364,26.9,0.942,> 10.2,0.781,4.28,0.952,> 16
"RERF-LC-MS (lung adenocarcinoma, adherent)",0.974,> 5,0.987,> 5.12,0.456,9.46,0.92,> 10,0.537,3.95,0.799,31.6,0.984,> 20,0.706,249,0.986,> 10.2,0.983,> 10.2,0.939,> 16
"SW1271 (small cell lung carcinoma, adherent)",0.981,> 5,0.984,> 5.12,0.671,40.5,0.981,> 10,0.75,18.6,0.255,0.701,0.907,> 20,0.635,161,0.971,> 10.2,0.845,9.15,0.984,> 16
"TYK-nu (ovary, adherent)",0.972,> 5,0.985,> 5.12,0.516,13.9,0.94,> 10,0.391,1.53,0.458,3.05,0.869,> 20,0.621,142,0.979,> 10.2,0.983,> 10.2,0.985,> 16
"WM1552C (melanoma, adherent)",0.986,> 5,0.967,> 5.12,0.881,> 200,0.969,> 10,0.768,18.8,0.185,0.453,0.876,> 20,0.549,86.9,0.963,> 10.2,0.922,> 10.2,0.984,> 16
"NH-12 (neuroblastoma, adherent)",0.979,> 5,0.985,> 5.12,0.813,125,0.845,8.54,0.384,1.44,0.429,2.5,0.864,> 20,0.516,71.1,0.952,> 10.2,0.759,3.99,0.982,> 16
"RT4 (bladder, adherent)",0.986,> 5,0.966,> 5.12,0.97,> 200,0.984,> 10,0.588,5.53,0.048,< 0.25,0.927,> 20,0.647,167,0.986,> 10.2,0.804,5.47,0.986,> 16
"H2722 (mesothelioma, adherent)",0.968,> 5,0.97,> 5.12,0.62,28.5,0.927,> 10,0.513,3.41,0.561,6.05,0.871,> 20,0.575,107,0.974,> 10.2,0.804,6.33,0.979,> 16
"LB1047-RCC (kidney, adherent)",0.959,> 5,0.959,> 5.12,0.468,10.1,0.875,> 10,0.371,1.31,0.13,< 0.25,0.872,> 20,0.376,27.8,0.968,> 10.2,0.924,> 10.2,0.975,> 16
"Mo-T (hairy cell leukaemia, suspension)",0.978,> 5,0.973,> 5.12,0.439,8.49,0.952,> 10,0.578,5.13,0.903,> 64,0.865,18.3,0.865,937,0.945,> 10.2,0.96,> 10.2,0.976,> 16

# IC50 is the fitted dose that halves viability relative to control wells, and lower means more sensitive; a limit (>, <) means that the fit lies beyond the doses tested. AUC sums up the same curve from the lowest dose to the 256-fold higher top dose; it is 1 without any effect and falls as sensitivity rises. For some assays here: The top dose, if marked as inferred, was derived from the fitted curves, not read from the paper. For some assays here: Where an entry number is given, a second screen of the drug exists; the two often differ.
